# Measurements published in PubChem BioAssay AID488969 (Vanderbilt High Throughput Screening Facility, 2010).
# Over roughly 110,000 compounds, “z-score” has its median near -0.1; the highest 2% begin near 2. The list shows a part of the results. The source made the active and inactive calls.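 Rule for the calls: active = z-score in the third read window above 3 or below -3; inactive = the rest.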
# Molecular target: Metabotropic glutamate receptor 8 (Rattus norvegicus) (UniProt P70579)
# Assay: mGluR8 Gi/Go-coupled signaling modulation – cell-based, rat, thallium flux, HTS, primary screen (AID 488969)
# Conditions: HEK293 rat mGluR8, GIRK (G protein-gated inwardly rectifying potassium channel) thallium flux, FluoZin2; at 10 µM; stronger effect = higher value; submaximal glutamate (EC20) added with thallium
# UniProt P70579, sequence (P70579 whole entry, looked up): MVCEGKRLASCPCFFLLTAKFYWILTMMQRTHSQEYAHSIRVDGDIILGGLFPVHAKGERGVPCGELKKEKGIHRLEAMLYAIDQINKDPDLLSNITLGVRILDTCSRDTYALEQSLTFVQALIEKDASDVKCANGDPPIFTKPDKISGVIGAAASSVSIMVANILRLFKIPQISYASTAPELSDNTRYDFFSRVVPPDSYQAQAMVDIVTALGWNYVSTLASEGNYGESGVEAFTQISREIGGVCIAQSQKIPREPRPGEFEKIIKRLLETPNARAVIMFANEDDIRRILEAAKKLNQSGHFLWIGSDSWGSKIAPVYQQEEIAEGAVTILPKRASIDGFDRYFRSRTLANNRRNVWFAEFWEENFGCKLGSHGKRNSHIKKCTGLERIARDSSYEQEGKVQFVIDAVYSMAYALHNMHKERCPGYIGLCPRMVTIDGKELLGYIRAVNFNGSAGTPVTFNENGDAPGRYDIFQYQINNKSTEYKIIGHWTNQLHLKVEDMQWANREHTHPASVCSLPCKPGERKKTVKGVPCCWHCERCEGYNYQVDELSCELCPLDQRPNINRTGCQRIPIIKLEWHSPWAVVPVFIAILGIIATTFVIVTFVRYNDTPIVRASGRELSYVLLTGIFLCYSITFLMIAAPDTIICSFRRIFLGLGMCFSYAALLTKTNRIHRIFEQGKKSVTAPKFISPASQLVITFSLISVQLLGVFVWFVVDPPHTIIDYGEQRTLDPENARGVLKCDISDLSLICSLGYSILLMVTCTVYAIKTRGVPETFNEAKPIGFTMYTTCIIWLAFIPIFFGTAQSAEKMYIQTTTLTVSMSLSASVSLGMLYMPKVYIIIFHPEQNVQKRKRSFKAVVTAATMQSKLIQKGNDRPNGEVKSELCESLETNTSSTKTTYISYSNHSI
row,Structure (SMILES),z-score
1,O=C1C=CC(=O)N1N(c1ccccc1)c1ccccc1,-0.346
2,COc1ccccc1-c1cc(-c2cc(Cl)ccc2O)n[nH]1,-0.369
3,CCOC(=O)NC(NCCc1ccccc1)(C(F)(F)F)C(F)(F)F,0.322
4,O=C(O)c1ccccc1NCN1C(=O)C2CC=C(Cl)CC2C1=O (stereo unspecified),-0.567
5,CSc1ncc(C(=O)O)c(C)n1,0.51
6,O=C(O)c1ccccc1C(=O)Nc1ccc(-c2csc(-c3ccccc3)n2)cc1,active: -3.01
7,CCN(CC(=O)NC1CCS(=O)(=O)C1)S(=O)(=O)c1ccc(C)cc1C (stereo unspecified),0.0233
8,Cn1nnnc1NCc1c(F)cccc1Cl,1
9,COc1ccc(Cl)cc1NC(=O)CSc1nnc(COc2ccccc2)n1N,-0.455
10,O=C(Nc1nc(-c2ccccn2)cs1)C1CC(=O)N(c2ccc3c(c2)OCCO3)C1 (stereo unspecified),-0.0555
11,O=C(Nc1nc2ccccc2s1)C1CC(=O)N(c2ccc(Br)cc2)C1 (stereo unspecified),0.374
12,Cc1cccc(Cc2cnc(N3C(=N)SC(c4ccccc4)C3=O)s2)c1 (stereo unspecified),-2.12
13,O=C1Nc2ccccc2/C1=C\c1cccn1-c1ccc(OC(F)(F)F)cc1,2.45
14,CCCCn1c(N)c(N(CCOC)C(=O)CCc2ccc(OC)cc2)c(=O)[nH]c1=O,0.0193
15,CC(=O)c1nn(-c2ccc(Br)cc2)cc1C(=O)c1ccco1,-0.914
16,C=CCNCCOCCOc1ccc(C)cc1[N+](=O)[O-],0.169
17,CCOc1ccc(N(C(=O)Nc2ccccc2)C2=NCCC2)cc1,-0.321
18,CCOC(=O)C1CCN(C(=O)C2CC(=O)N(c3ccc(C)cc3)C2)CC1 (stereo unspecified),-0.384
19,COc1ccc(C(=O)CSc2nnc(CNc3ccc(C)cc3C)o2)cc1,-0.0883

row,Structure (SMILES),z-score
1,O=S(=O)(c1ccccc1)N1CCN(C(=S)Nc2ccc(F)cc2)CC1,active: 3.37
2,Cc1ccnc(NC(=O)CCC2CCCCC2)c1,0.386
3,O=C(O)c1cccc(NC(=O)c2ccc3c(c2)C(=O)N(CC2CCCO2)C3=O)c1 (stereo unspecified),1.47
4,CCOC(=O)CSc1nc2c(sc(=S)n2CCc2ccccc2)c(=O)n1Cc1ccco1,-0.162
5,Cc1ccc([N+](=O)[O-])cc1-c1[nH]c(-c2ccc(O)c(O)c2)nc1-c1ccccc1,-0.37
6,COc1cc2c3c(c1)C1(C(=O)N3C(C)(C)C=C2C)C(C#N)=C(N)Oc2cc(O)ccc21 (stereo unspecified),0.429
7,O=C(CN1C(=O)c2ccccc2C1=O)N1CCN(C(=O)c2ccco2)CC1,-0.0354
8,O=C(NCc1ccccc1Cl)c1cnc2n(c1=O)CCS2,-0.0692
9,O=C(Nc1cccc(-c2nnc(-c3ccccc3)o2)c1)C1CCCCC1,-0.0325
10,Cc1ccccc1CN1CCCNC1=O,0.218
11,CCOC(=O)CC1C(=O)NCCN1C(=O)COc1ccc(Br)cc1C (stereo unspecified),-0.651
12,O=C(O)c1cccc(NS(=O)(=O)/C=C/c2ccccc2)c1,-0.0762
13,COC(=O)c1ccc[n+](CC(=O)c2ccc(Br)cc2)c1,0.198
14,CN(Cc1nc2ccccc2n1C)S(C)(=O)=O,0.318
15,O=C(CNS(=O)(=O)c1ccccc1Br)OCC(=O)N1CCc2ccccc21,-0.676
16,COc1ccc(O)c(/C=N/NC(=S)Nc2cccc(S(=O)(=O)N(C)C)c2)c1,0.0404
17,O=C(C(NS(=O)(=O)c1cccs1)c1ccccc1)N1CCN(c2ccccc2F)CC1 (stereo unspecified),-0.171
18,Cc1nn(-c2ccccc2)c(N)c1C1(O)C(=O)N(C(C)C)c2ccccc21 (stereo unspecified),0.371
19,Cc1ccc(SCc2nnc(N)s2)cc1,0.0236

row,Structure (SMILES),z-score
1,O=C(O)c1ccc(NS(=O)(=O)c2ccc(Cl)cc2)cc1,-0.0545
2,CC(C)NC(=O)c1ccccc1NC(=O)CN(c1ccc2c(c1)OCO2)S(C)(=O)=O,0.503
3,CC(NC(=O)NCCCC(=O)O)(C(F)(F)F)C(F)(F)F,-0.354
4,CCOCCCNCc1cccc(OC)c1,0.85
5,CCn1c2ccccc2c2cc(C3C(C#N)=C(C)NC(C)=C3C#N)ccc21,0.239
6,c1ccc(-c2noc(CSc3nnc(Cc4cccs4)n3-c3ccccc3)n2)cc1,0.888
7,COC(=O)c1cc(OC)c(OC)cc1NC(=O)CCC1CCCC1,0.273
8,O=C(COc1ccccc1)Nc1nc(-c2cccs2)cs1,2.15
9,Cc1cc(NC(=O)c2cccc(COc3ccc(Br)cc3)c2)no1,0.0753
10,Cc1ccc(-c2noc(CC(c3ccccc3)c3ccccc3)n2)cc1,-0.456
11,CC(C)=CCC/C(C)=C/CN(CC(C)O)CC(C)O (stereo unspecified),0.219
12,CCn1c(CSc2nnc(-c3cccnc3)n2-c2ccccc2C)nc2cc(C(=O)O)ccc21,0.919
13,CCS(=O)(=O)c1ccc2oc(Nc3ccc(C(C)C)cc3)nc2c1,0.431
14,CCN1CCc2nc(NC(=O)c3ccc4c(c3)OCCO4)sc2C1,0.181
15,Cc1ccc(CNC(=O)C2CC(=O)N(c3ccc(OCC(=O)N4CCCC4)cc3)C2)cc1 (stereo unspecified),-0.11
16,CC(=O)c1cn(CC(=O)Nc2ccccc2C)c2ccccc12,-0.744
17,Cc1ccc(C)c(NC2=NCC(=O)N2C2CCCCC2)c1,-0.773
18,O=C(CC1CCCCC1)Nc1ccccc1-c1ccccc1,-0.225
